Measured values from PMC10726135.
The other results are listed elsewhere or left out. At the low end of the ranking the order means little. The protein was read in a cell extract, so binding may be indirect.

These sequences were tested against T1, HNF4alpha8 (COS-7 nuclear extract) (UniProt P41235-5) (assay: protein-binding microarray). Settings: COS-7 nuclear extract on double-stranded Agilent 4x180k PBM; binding buffer, salt, pH and temperature not given; high values mean tight binding; double strand, one strand shown; sequences stand for … in …GCCTAGGGAGATTAGAGTATCGGTCGA.
T1 sequence: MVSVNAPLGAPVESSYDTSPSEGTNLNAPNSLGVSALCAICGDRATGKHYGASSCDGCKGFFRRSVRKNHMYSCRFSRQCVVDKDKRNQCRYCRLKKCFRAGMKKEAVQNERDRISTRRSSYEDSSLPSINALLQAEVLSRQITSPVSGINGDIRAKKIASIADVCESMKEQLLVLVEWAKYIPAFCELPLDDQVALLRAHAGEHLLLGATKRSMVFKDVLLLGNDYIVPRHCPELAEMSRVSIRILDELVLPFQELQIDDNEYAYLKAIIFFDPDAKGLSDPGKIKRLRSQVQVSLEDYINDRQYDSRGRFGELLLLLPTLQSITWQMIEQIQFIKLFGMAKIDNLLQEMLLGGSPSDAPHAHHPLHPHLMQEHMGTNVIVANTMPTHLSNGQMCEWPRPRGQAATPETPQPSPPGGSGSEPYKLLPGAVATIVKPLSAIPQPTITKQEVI

Sequence	binding signal (log2 normalized intensity)
TCAGGTTCCCCAGTGAGGATGTGTGCTCGA	1.14
AGACAGAAAACAAACATTAGCTGCAGATTC	-1.33
TAGGGCAGGGGGGAGATGAAATCTGGAGCT	-1.42
TGACACACACCTCCAGCCACCCTGAAGGCT	-1.32
GTGGGATCCAACCAGAGGGAAGAGATCATG	-1.13
CAAACATTTATTTTGTGTGCTAGATACTGG	0.924
CCCCTCTGACCTCTCCTCCTACCTTCTCCC	2.67
TCTTTGCCCTCTTGGTATCAGCTTTGAGAC	1.91
CCTTTCCCCGCCCCGCGTCCGTGCACCCTT	4.51
GTCAGGAACAAAGGTCACAGCACTGTTTAT	4.74
TAATTAACTCCCCCTGCCCCCAGGTAGAGA	5.82
CCCCCAGCCTCTCACAGTAGCCCAGGTCCT	2.25
AGGAGAAGGGCCCATGGGCTTCAGGGTAAA	-1.43
AAAAAACCCTAGAGATGTACACAGTTCAAA	-0.843
AATTGTGAAACTCAGAATCAGGGGATTCTG	-1.38
CTTCACCTCCCCTAGACTTACTATTATGCC	1.86
CCTAGCCCCACCAAACTGACAGGTTAGACT	2.33
CAAGGTTCCCAGCTAAATAAATAACTCTAA	-1.34
CTCCAAACATCTTTGGTATGGACTGATATT	1.85
AGGAGATATGCACTTGCCCTTTGGTAATCC	3.81

Sequence	binding signal (log2 normalized intensity)
GACTCTGTCCTGGGCACTGTCCTAGGTGCT	-1.17
CTCCCCCACGACAGAATTGACTCTTCGTTT	2.63
TGCCACAGGTATTTCTGTTGTTGATTTAAC	1.39
TATTCTTTAACCAGAGTCTACAGGTCAGAC	2.21
TATCTCAACTGATTTACCTCTGACCACTCT	1.15
TCTTGTAGGTTTTTTTTTTTTTTAACGGTC	3.09
CTCCAGGAGCAATCATCGCACCTAAGGGCA	-1.43
GTCCCAGGGCAAAGGTCACCAGCTAAGCTG	6.21
ACCTCTGGTCATTCAATGTTTGGGAGCCTT	1.2
TGTCGGTATAAGTTCTACATTCCCAAGGTT	0.743
CTTCCTTTATTCACTTCTCAAAGGACAGAT	1.65
AAGGCATGGGACCTTTGCCCTTCTTGTTAA	5.47
ACACTTTCTGACCTTTAAGCACCCAGAGCC	2.86
TAAAGGTCAAAACCACCTATTCTGAAGATT	0.57
GTTACGAGTGGGAGTTAGGGAAAAGATAAG	-1.33
GAGGAGAGTACTGTCTCTTATCAGCCATCT	-1.22
TTCCAGGCTTGTACCTTGACCTTCTCTGTT	6.19
AGATGTGAACACTGAGGCTCAATGAGGTCA	2.2
CCCGGGCACAGGGTTGAGTGGTGACTGAAG	-1.22
CAAGAGAGGTCACAACAGAAAGCAAGAGCA	-1.27
